# Assay results as given in the supplement of paper PMC4604168 (melanoma cell lines).
# The other results are listed elsewhere or left out. Most values come without repeats; read them as rough.
# System: A101D
# Experiment: cell count relative to DMSO control; melanoma cells; higher = more viable cells
# Settings: library dose: standard library concentration; 72 h
# 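Further: cells treated in 1,536-well plates, then fixed and DAPI-stained, with nuclei counted from automated high-throughput microscope images.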
row,SMILES,cell count [%]
1,"Cn1cc(C2=C(c3cn(C4CCN(Cc5ccccn5)CC4)c4ccccc34)C(=O)NC2=O)c2ccccc21 [Enzastaurin] + COc1ccc(C2=N[C@@H](c3ccc(Cl)cc3)[C@@H](c3ccc(Cl)cc3)N2C(=O)N2CCNC(=O)C2)c(OC(C)C)c1 [Nutlin-3] (first compound 4 µM, partner dose 0.5 µM)",63.6
2,"N.N.[Cl][Pt][Cl] [cisplatin] + CS(=O)(=O)CCNCc1ccc(-c2ccc3ncnc(Nc4ccc(OCc5cccc(F)c5)c(Cl)c4)c3c2)o1 [lapatinib] (first compound 8 µM, partner dose 4 µM)",97.3
3,"Cn1cc(C2=C(c3cn(C4CCN(Cc5ccccn5)CC4)c4ccccc34)C(=O)NC2=O)c2ccccc21 [Enzastaurin] + Nc1ccn([C@@H]2O[C@H](CO)[C@@H](O)C2(F)F)c(=O)n1 [gemcitabine] (first compound 4 µM, partner dose 0.002 µM)",101
4,"C[C@]12O[C@H](C[C@]1(O)CO)n1c3ccccc3c3c4c(c5c6ccccc6n2c5c31)CNC4=O [Lestaurtinib] + NCC(=O)Nc1ccc(-n2nc(C(F)(F)F)cc2-c2ccc3c(ccc4ccccc43)c2)cc1 [OSU03012] (first compound 0.02 µM, partner dose 5 µM)",88.7

# System: A2058
# Experiment: as above
# Settings: library dose: standard library concentration; 72 h
row,SMILES,cell count [%]
1,"C[As](C)SC[C@H](NC(=O)CC[C@H](N)C(=O)O)C(=O)NCC(=O)O [Darinaparsin] + Cc1nc(Nc2ncc(C(=O)Nc3c(C)cccc3Cl)s2)cc(N2CCN(CCO)CC2)n1 [dasatanib] (first compound 2 µM, partner dose 0.02 µM)",58.4
2,"Cn1cc(C2=C(c3cn(C4CCN(Cc5ccccn5)CC4)c4ccccc34)C(=O)NC2=O)c2ccccc21 [Enzastaurin] + C[C@]12O[C@H](C[C@]1(O)CO)n1c3ccccc3c3c4c(c5c6ccccc6n2c5c31)CNC4=O [Lestaurtinib] (first compound 4 µM, partner dose 0.02 µM)",88.1
3,"Cn1cc(C2=C(c3cn(C4CCN(Cc5ccccn5)CC4)c4ccccc34)C(=O)NC2=O)c2ccccc21 [Enzastaurin] + COCC[n+]1c2c(n(Cc3cnccn3)c1C)C(=O)c1ccccc1C2=O [YM155] (first compound 4 µM, partner dose 0.002 µM)",18.2
4,"C[As](C)SC[C@H](NC(=O)CC[C@H](N)C(=O)O)C(=O)NCC(=O)O [Darinaparsin] + O=C(Nc1cccc(Cl)c1)Nc1ncc(CCNc2ncnc3ccsc23)s1 [SNS314] (first compound 2 µM, partner dose 0.004 µM)",66.7
5,"Cn1cc(C2=C(c3cn(C4CCN(Cc5ccccn5)CC4)c4ccccc34)C(=O)NC2=O)c2ccccc21 [Enzastaurin] + O=C(O)c1ccc(-c2c[nH]c3ncc(-c4ccccc4)cc23)cc1C1CCCC1 [GSK650394] (first compound 4 µM, partner dose 0.8 µM)",78.3
6,"C[C@]12O[C@H](C[C@]1(O)CO)n1c3ccccc3c3c4c(c5c6ccccc6n2c5c31)CNC4=O [Lestaurtinib] + COc1cc2c(Oc3ccc4[nH]c(C)cc4c3F)ncnc2cc1OCCCN1CCCC1 [cediranib] (first compound 0.02 µM, partner dose 2 µM)",87.7
7,"C[C@]12O[C@H](C[C@]1(O)CO)n1c3ccccc3c3c4c(c5c6ccccc6n2c5c31)CNC4=O [Lestaurtinib] + CCCCCCCCc1ccc(CCC(N)(CO)CO)cc1 [fingolimod] (first compound 0.02 µM, partner dose 10 µM)",5.06
8,"C[As](C)SC[C@H](NC(=O)CC[C@H](N)C(=O)O)C(=O)NCC(=O)O [Darinaparsin] + Cn1nnc2c(C(N)=O)ncn2c1=O [temozolomide] (first compound 2 µM, partner dose 10 µM)",40.2
9,"N.N.[Cl][Pt][Cl] [cisplatin] + O=C(Nc1cccc(Cl)c1)Nc1ncc(CCNc2ncnc3ccsc23)s1 [SNS314] (first compound 8 µM, partner dose 0.004 µM)",101
10,"N.N.[Cl][Pt][Cl] [cisplatin] + C=C(c1ccc(C(=O)O)cc1)c1cc2c(cc1C)C(C)(C)CCC2(C)C [Bexarotene] (first compound 8 µM, partner dose 10 µM)",99.6
11,"C[C@]12O[C@H](C[C@]1(O)CO)n1c3ccccc3c3c4c(c5c6ccccc6n2c5c31)CNC4=O [Lestaurtinib] + COc1ccc(Cl)c(Nc2nc3ccccc3nc2NS(=O)(=O)c2cccc(NC(=O)C(C)(C)N)c2)c1 [XL147] (first compound 0.02 µM, partner dose 4 µM)",83.2
12,"C[C@]12O[C@H](C[C@]1(O)CO)n1c3ccccc3c3c4c(c5c6ccccc6n2c5c31)CNC4=O [Lestaurtinib] + CC(=O)c1c(C)c2cnc(Nc3ccc(N4CCNCC4)cn3)nc2n(C2CCCC2)c1=O [palbociclib] (first compound 0.02 µM, partner dose 0.2 µM)",101
13,"C[C@]12O[C@H](C[C@]1(O)CO)n1c3ccccc3c3c4c(c5c6ccccc6n2c5c31)CNC4=O [Lestaurtinib] + CS(=O)(=O)CCNCc1ccc(-c2ccc3ncnc(Nc4ccc(OCc5cccc(F)c5)c(Cl)c4)c3c2)o1 [lapatinib] (first compound 0.02 µM, partner dose 4 µM)",85.8
14,"C[C@]12O[C@H](C[C@]1(O)CO)n1c3ccccc3c3c4c(c5c6ccccc6n2c5c31)CNC4=O [Lestaurtinib] + N.N.[Cl][Pt][Cl] [cisplatin] (first compound 0.02 µM, partner dose 8 µM)",104
15,"N.N.[Cl][Pt][Cl] [cisplatin] + Cn1nnc2c(C(N)=O)ncn2c1=O [temozolomide] (first compound 8 µM, partner dose 10 µM)",40.1
16,"N.N.[Cl][Pt][Cl] [cisplatin] + C[C@]1(c2nc3c(C(N)=O)cccc3[nH]2)CCCN1 [Veliparib] (first compound 8 µM, partner dose 7 µM)",69.8
17,"Cn1cc(C2=C(c3cn(C4CCN(Cc5ccccn5)CC4)c4ccccc34)C(=O)NC2=O)c2ccccc21 [Enzastaurin] + Cc1cc(N2CCOCC2)cc2[nH]c(-c3c(NC[C@@H](O)c4cccc(Cl)c4)cc[nH]c3=O)nc12 [BMS536924] (first compound 4 µM, partner dose 1 µM)",80
18,"C[As](C)SC[C@H](NC(=O)CC[C@H](N)C(=O)O)C(=O)NCC(=O)O [Darinaparsin] + Oc1cc(-c2nc(-c3ccccc3)[nH]c2-c2ccncc2)ccc1Cl [L779450] (first compound 2 µM, partner dose 1 µM)",87.7
19,"Cn1cc(C2=C(c3cn(C4CCN(Cc5ccccn5)CC4)c4ccccc34)C(=O)NC2=O)c2ccccc21 [Enzastaurin] + OCCn1cc(-c2cnc3nnn(Cc4ccc5ncccc5c4)c3n2)cn1 [PF04217903] (first compound 4 µM, partner dose 5 µM)",87.4
20,"C[As](C)SC[C@H](NC(=O)CC[C@H](N)C(=O)O)C(=O)NCC(=O)O [Darinaparsin] + CN(C)S(=O)(=O)c1ccc2c(c1)/C(=C/c1cc3c([nH]1)CCCC3)C(=O)N2 [SU6656] (first compound 2 µM, partner dose 2 µM)",86
21,"C[C@]12O[C@H](C[C@]1(O)CO)n1c3ccccc3c3c4c(c5c6ccccc6n2c5c31)CNC4=O [Lestaurtinib] + COCC[n+]1c2c(n(Cc3cnccn3)c1C)C(=O)c1ccccc1C2=O [YM155] (first compound 0.02 µM, partner dose 0.002 µM)",23.5
22,"C[C@]12O[C@H](C[C@]1(O)CO)n1c3ccccc3c3c4c(c5c6ccccc6n2c5c31)CNC4=O [Lestaurtinib] + O=C(CCCCCCC(=O)Nc1ccccc1)NO [vorinostat] (first compound 0.02 µM, partner dose 0.4 µM)",97.3
23,"C[C@]12O[C@H](C[C@]1(O)CO)n1c3ccccc3c3c4c(c5c6ccccc6n2c5c31)CNC4=O [Lestaurtinib] + Nc1nc(F)nc2c1ncn2[C@@H]1O[C@H](CO)[C@@H](O)[C@@H]1O [fludarabine] (first compound 0.02 µM, partner dose 1 µM)",87.9
24,"C[C@]12O[C@H](C[C@]1(O)CO)n1c3ccccc3c3c4c(c5c6ccccc6n2c5c31)CNC4=O [Lestaurtinib] + CC1(C)NC(=O)N(c2ccc([N+](=O)[O-])c(C(F)(F)F)c2)C1=O [nilutamide] (first compound 0.02 µM, partner dose 5 µM)",88.3
25,"C[C@]12O[C@H](C[C@]1(O)CO)n1c3ccccc3c3c4c(c5c6ccccc6n2c5c31)CNC4=O [Lestaurtinib] + CO[C@H]1C[C@@H]2CC[C@@H](C)[C@@](O)(O2)C(=O)C(=O)N2CCCC[C@H]2C(=O)O[C@H]([C@H](C)C[C@@H]2CC[C@@H](OCCO)[C@H](OC)C2)CC(=O)[C@H](C)/C=C(\C)[C@@H](O)[C@@H](OC)C(=O)[C@H](C)C[C@H](C)/C=C/C=C/C=C/1C [everolimus] (first compound 0.02 µM, partner dose 0.1 µM)",56.2
26,"N.N.[Cl][Pt][Cl] [cisplatin] + CN1CCN(c2ccc3nc(-c4c(N)c5c(F)cccc5[nH]c4=O)[nH]c3c2)CC1 [Dovitinib] (first compound 8 µM, partner dose 0.5 µM)",32.9
